Laboratory results from the supplement of paper PMC4604168 (melanoma cell lines).
The list shows a part of the results. Single values are uncertain, as repeats are few or missing.
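Further: cells treated in 1,536-well plates, then fixed and DAPI-stained, with nuclei counted from automated high-throughput microscope images.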

These compounds were tested on WM3619 (assay: cell count relative to DMSO control; melanoma cells; higher = more viable cells). Conditions: library dose: standard library concentration; 72 h.
`C#Cc1cccc(Nc2ncnc3cc(OCCOC)c(OCCOC)cc23)c1` [erlotinib] + Cn1nnc2c(C(N)=O)ncn2c1=O [temozolomide] (first compound 4 µM, partner dose 10 µM) gave a cell count of 90.6%.
In the case of `Clc1ccc(Nc2nnc(Cc3ccncc3)c3ccccc23)cc1` [vatalanib] + Nc1cccc2c1CN(C1CCC(=O)NC1=O)C2=O [lenalidomide] (first compound 10 µM, partner dose 5 µM), the cell count is reported as 74%.
`C#Cc1cccc(Nc2ncnc3cc(OCCOC)c(OCCOC)cc23)c1` [erlotinib] + Cc1nc(Nc2ncc(C(=O)Nc3c(C)cccc3Cl)s2)cc(N2CCN(CCO)CC2)n1 [dasatanib] (first compound 4 µM, partner dose 0.02 µM) gave a cell count of 66.3%.
`OCc1c[nH]c2ccccc12` [Indole-3-carbinol] + OCCn1cc(-c2cnc3nnn(Cc4ccc5ncccc5c4)c3n2)cn1 [PF04217903] (first compound 4 µM, partner dose 5 µM) was tested, and the cell count was 101%.
In the case of `COCC[n+]1c2c(n(Cc3cnccn3)c1C)C(=O)c1ccccc1C2=O` + OCCn1cc(-c2cnc3nnn(Cc4ccc5ncccc5c4)c3n2)cn1 [PF04217903] (first compound 0.002 µM, partner dose 5 µM), the cell count is reported as 104%.
`Cn1c(Nc2ccc(C(F)(F)F)cc2)nc2cc(Oc3ccnc(-c4ncc(C(F)(F)F)[nH]4)c3)ccc21` + Cn1nnc2c(C(N)=O)ncn2c1=O [temozolomide] (first compound 0.4 µM, partner dose 10 µM) gave a cell count of 45.1%.
Compound `Nc1cccc2c1CN(C1CCC(=O)NC1=O)C2=O` (stereo unspecified) [lenalidomide] + C[C@]1(c2nc3c(C(N)=O)cccc3[nH]2)CCCN1 [Veliparib] (first compound 5 µM, partner dose 7 µM) has a cell count of 90.7%.
In the case of `OCc1c[nH]c2ccccc12` [Indole-3-carbinol] + CC(C)(C)c1cnc(CSc2cnc(NC(=O)C3CCNCC3)s2)o1 [SNS-032] (first compound 4 µM, partner dose 0.05 µM), the cell count is reported as 39.6%.
`Clc1ccc(Nc2nnc(Cc3ccncc3)c3ccccc23)cc1` [vatalanib] + Cc1nc(Nc2ncc(C(=O)Nc3c(C)cccc3Cl)s2)cc(N2CCN(CCO)CC2)n1 [dasatanib] (first compound 10 µM, partner dose 0.02 µM) gave a cell count of 55.5%.
`OCc1c[nH]c2ccccc12` [Indole-3-carbinol] + C#Cc1cccc(Nc2ncnc3cc(OCCOC)c(OCCOC)cc23)c1 [erlotinib] (first compound 4 µM, partner dose 4 µM) was tested, and the cell count was 101%.
For `Nc1cccc2c1CN(C1CCC(=O)NC1=O)C2=O` (stereo unspecified) [lenalidomide] + Cn1nnc2c(C(N)=O)ncn2c1=O [temozolomide] (first compound 5 µM, partner dose 10 µM), the cell count was 96.8%.
With `OCc1c[nH]c2ccccc12` [Indole-3-carbinol] + Cn1c(Nc2ccc(C(F)(F)F)cc2)nc2cc(Oc3ccnc(-c4ncc(C(F)(F)F)[nH]4)c3)ccc21 [CHIR265] (first compound 4 µM, partner dose 0.4 µM) the cell count was 59%.
In the case of `OCc1c[nH]c2ccccc12` [Indole-3-carbinol] + COc1cc(Nc2ncc(F)c(Nc3ccc4c(n3)NC(=O)C(C)(C)O4)n2)cc(OC)c1OC [Tamatinib] (first compound 4 µM, partner dose 2 µM), the cell count is reported as 73.6%.
In the case of `O=C(CCCCCCC(=O)Nc1ccccc1)NO` [vorinostat] + NC(=O)Nc1cc(-c2cccc(F)c2)sc1C(=O)N[C@H]1CCCNC1 [AZD7762] (first compound 0.4 µM, partner dose 0.1 µM), the cell count is reported as 19%.
With `Clc1ccc(Nc2nnc(Cc3ccncc3)c3ccccc23)cc1` [vatalanib] + Cn1c(Nc2ccc(C(F)(F)F)cc2)nc2cc(Oc3ccnc(-c4ncc(C(F)(F)F)[nH]4)c3)ccc21 [CHIR265] (first compound 10 µM, partner dose 0.4 µM) the cell count was 45.6%.
For `C#Cc1cccc(Nc2ncnc3cc(OCCOC)c(OCCOC)cc23)c1` [erlotinib] + Nc1cccc2c1CN(C1CCC(=O)NC1=O)C2=O [lenalidomide] (first compound 4 µM, partner dose 5 µM), the cell count was 83.1%.
